Test results reported in the supplement of paper PMC9446081.
About 220 (0.56%) of roughly 39,000 compounds showed activity. The list shows a part of the results.

The molecules below were run on Escherichia coli K-12 BW25113 (assay: relative growth (OD600 normalised to plate interquartile mean) (fraction); higher = less growth inhibition, active = 0.2 or less). Details: 50 µM; LB; incubation time: overnight (16-24 h).
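Further: static incubation at 37 °C against the wild-type strain, values averaged over two biological replicates.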

Structure (SMILES)	relative growth
Cc1noc(C)c1NC(=O)N[C@@H]1CC[C@@H](CC(=O)NCCCN(C)C)O[C@H]1CO	inactive: 1
O=C(C[C@@H]1C[C@H]2c3cc(NC(=O)c4ccc5c(c4)OCO5)ccc3O[C@H]2[C@@H](CO)O1)NCc1ccc(Oc2ccccc2)cc1	inactive: 1.01
C[C@H](CO)N1C[C@H](C)[C@H](CN(C)C(=O)Nc2ccc3c(c2)OCO3)OCCCC[C@H](C)Oc2ccc(NC(=O)Nc3ccc(C(F)(F)F)cc3)cc2C1=O	inactive: 1.01
C[C@H]1CN([C@@H](C)CO)C(=O)c2cccc(NC(=O)C3CC3)c2O[C@H]1CN(C)S(=O)(=O)c1ccccc1	inactive: 0.968
COc1ccc(S(=O)(=O)N(C)C[C@@H]2OCCCC[C@H](C)Oc3ccc(NC(=O)Nc4c(C)noc4C)cc3C(=O)N([C@H](C)CO)C[C@@H]2C)cc1	inactive: 0.983
Cc1ccc(S(=O)(=O)Nc2ccc3c(c2)C(=O)N([C@H](C)CO)C[C@H](C)[C@@H](CN(C)Cc2ccc(Cl)c(Cl)c2)OCCCC[C@@H](C)O3)cc1	inactive: 1.01
Cc1noc(C)c1S(=O)(=O)N(C)C[C@H]1Oc2ccc(NC(=O)Cc3ccccc3)cc2CC(=O)N([C@@H](C)CO)C[C@@H]1C	inactive: 0.963
CN1C(=O)c2cc(NC(=O)Cc3cccs3)ccc2OC[C@@H]2O[C@H](CC(=O)NCc3ccc(-c4ccccc4)cc3)CC[C@@H]21	inactive: 1.02
C[C@@H]1CCCCO[C@@H](CN(C)C(=O)Nc2ccc(C(F)(F)F)cc2)[C@@H](C)CN([C@H](C)CO)C(=O)c2cc(NC(=O)Nc3cccc4ccccc34)ccc2O1	inactive: 1.02
C[C@H](CO)N1C[C@H](C)[C@H](CN(C)C(=O)Nc2ccc3c(c2)OCO3)Oc2ncc(C#CC3(O)CCCC3)cc2C1=O	inactive: 1
C[C@@H]1CCCCO[C@H](CN(C)C(=O)Nc2ccc3c(c2)OCO3)[C@H](C)CN([C@H](C)CO)C(=O)c2cc(NC(=O)Nc3ccccc3)ccc2O1	inactive: 1.02
NC[C@H]1COC2(CCCCC2)O1	inactive: 0.995
O=C(C[C@@H]1CC[C@H]2[C@@H](COC[C@H](O)CN2S(=O)(=O)c2ccccc2F)O1)NCc1ccc(Cl)c(Cl)c1	inactive: 1.01
O=C(NOCCO)c1cc(CN2OCCCC2=O)c(F)c(F)c1Nc1ccc(I)cc1F	inactive: 1.02
COC(=O)CN1C(=O)CSc2ncccc21	inactive: 1.01
C[C@@H]1CCCCO[C@@H](CN(C)C(=O)NC2CCCCC2)[C@H](C)CN([C@@H](C)CO)C(=O)c2cc(NC(=O)C3CCCCC3)ccc2O1	inactive: 0.997
CCCN(C)C[C@H]1OCCCC[C@@H](C)Oc2ccc(NS(=O)(=O)c3cn(C)cn3)cc2C(=O)N([C@H](C)CO)C[C@H]1C	inactive: 0.984
CC(C)c1nc(CN(C)C(=O)NC(C(=O)NC(Cc2ccccc2)CC(O)C(Cc2ccccc2)NC(=O)OCc2cncs2)C(C)C)cs1 (centres undefined)	inactive: 0.797
C[C@@H]1CN([C@H](C)CO)C(=O)c2cc(NC(=O)NC3CCCCC3)ccc2O[C@@H]1CN(C)C(=O)Nc1ccc(C(F)(F)F)cc1	inactive: 0.98
C[C@H](CO)N1C[C@H](C)[C@H](CN(C)C(=O)Nc2ccc(F)cc2)Oc2ccc(NC(=O)Nc3cccc4ccccc34)cc2CC1=O	inactive: 1.01

Structure (SMILES)	relative growth
COc1ccc2c3c([nH]c2c1)[C@H](CO)N(C[C@]13CCN(CC1)Cc1nccs1)C(=O)C1CCOCC1	inactive: 0.931
CCOC(=O)[C@H]1[C@@H]2C(=O)N3CCC[C@H]3[C@H](O[Si](C(C)C)(C(C)C)C(C)C)[C@H]2C=C2CCN(S(=O)(=O)c3ccc(C)cc3)C[C@H]21	inactive: 1.05
C[C@@H]1CCCCO[C@H](CN(C)CC2CCCCC2)[C@@H](C)CN([C@H](C)CO)C(=O)c2cc(NC(=O)Nc3ccccc3)ccc2O1	inactive: 0.973
NNC(=O)[C@H]1C[C@H]2C[C@@H]1C[C@@H]2C(=O)NN	inactive: 1.03
CC(C)NC(=O)N(C)C[C@@H]1OCCCC[C@H](C)Oc2ccc(NS(=O)(=O)c3cn(C)cn3)cc2C(=O)N([C@@H](C)CO)C[C@@H]1C	inactive: 0.947
COc1cc(CN(CCc2ccccn2)C(=O)CCCCc2ccccc2)ccc1OCc1ccccc1	inactive: 1
C1CCN=C(NC2CCCCC2)CC1	inactive: 0.983
Cn1cnc(S(=O)(=O)N[C@H]2CC[C@@H](CC(=O)NCC3CC3)O[C@@H]2CO)c1	inactive: 1.03
CC(=O)N1[C@@H](CO)[C@H](c2ccccc2)[C@@H]1CNC(=O)CN1CCOCC1	inactive: 1.04
C[C@@H]1CN([C@H](C)CO)S(=O)(=O)c2ccc(C#Cc3cccnc3)cc2O[C@@H]1CN(C)C(=O)Nc1ccc2c(c1)OCO2	inactive: 1.01
O=C(C[C@@H]1CC[C@@H]2[C@H](COC[C@H](O)CN2S(=O)(=O)c2ccccc2Cl)O1)NCCc1ccncc1	inactive: 1.01
C[C@H](CO)N1C[C@H](C)[C@H](CN(C)C(=O)C2CCOCC2)Oc2cc(C3=CCCC3)ccc2S1(=O)=O	inactive: 0.999
O=S(=O)(Cc1nn[nH]n1)c1ccccc1	inactive: 1.03
Cc1noc(C)c1NC(=O)Nc1ccc2c(c1)CC(=O)N([C@H](C)CO)C[C@@H](C)[C@@H](CN(C)Cc1ccc(Oc3ccccc3)cc1)O2	inactive: 0.979
COc1ccc(S(=O)(=O)Nc2cccc3c2O[C@@H](CN(C)CC2CC2)[C@@H](C)CN([C@H](C)CO)C3=O)cc1	inactive: 1.03
CN(C)CCCNC(=O)C[C@H]1C=C[C@@H](NS(=O)(=O)c2ccccc2)[C@H](CO)O1	inactive: 0.983
C[C@@H]1CN([C@@H](C)CO)C(=O)CCCn2cc(nn2)CO[C@H]1CN(C)S(=O)(=O)c1cn(C)cn1	inactive: 1.02
O=C(C[C@@H]1CC[C@H](NC(=O)Cc2ccccn2)[C@@H](CO)O1)NCCc1ccncc1	inactive: 1.02
C[C@@H]1CN([C@H](C)CO)C(=O)Cc2cc(NC(=O)Cn3cnnn3)ccc2O[C@@H]1CN(C)Cc1ccc(C(=O)O)cc1	inactive: 0.975
